The values below come from paper PMC8139909.

The chains behind the UniProt entries cited, without tags or fusion partners.
UniProt P22579: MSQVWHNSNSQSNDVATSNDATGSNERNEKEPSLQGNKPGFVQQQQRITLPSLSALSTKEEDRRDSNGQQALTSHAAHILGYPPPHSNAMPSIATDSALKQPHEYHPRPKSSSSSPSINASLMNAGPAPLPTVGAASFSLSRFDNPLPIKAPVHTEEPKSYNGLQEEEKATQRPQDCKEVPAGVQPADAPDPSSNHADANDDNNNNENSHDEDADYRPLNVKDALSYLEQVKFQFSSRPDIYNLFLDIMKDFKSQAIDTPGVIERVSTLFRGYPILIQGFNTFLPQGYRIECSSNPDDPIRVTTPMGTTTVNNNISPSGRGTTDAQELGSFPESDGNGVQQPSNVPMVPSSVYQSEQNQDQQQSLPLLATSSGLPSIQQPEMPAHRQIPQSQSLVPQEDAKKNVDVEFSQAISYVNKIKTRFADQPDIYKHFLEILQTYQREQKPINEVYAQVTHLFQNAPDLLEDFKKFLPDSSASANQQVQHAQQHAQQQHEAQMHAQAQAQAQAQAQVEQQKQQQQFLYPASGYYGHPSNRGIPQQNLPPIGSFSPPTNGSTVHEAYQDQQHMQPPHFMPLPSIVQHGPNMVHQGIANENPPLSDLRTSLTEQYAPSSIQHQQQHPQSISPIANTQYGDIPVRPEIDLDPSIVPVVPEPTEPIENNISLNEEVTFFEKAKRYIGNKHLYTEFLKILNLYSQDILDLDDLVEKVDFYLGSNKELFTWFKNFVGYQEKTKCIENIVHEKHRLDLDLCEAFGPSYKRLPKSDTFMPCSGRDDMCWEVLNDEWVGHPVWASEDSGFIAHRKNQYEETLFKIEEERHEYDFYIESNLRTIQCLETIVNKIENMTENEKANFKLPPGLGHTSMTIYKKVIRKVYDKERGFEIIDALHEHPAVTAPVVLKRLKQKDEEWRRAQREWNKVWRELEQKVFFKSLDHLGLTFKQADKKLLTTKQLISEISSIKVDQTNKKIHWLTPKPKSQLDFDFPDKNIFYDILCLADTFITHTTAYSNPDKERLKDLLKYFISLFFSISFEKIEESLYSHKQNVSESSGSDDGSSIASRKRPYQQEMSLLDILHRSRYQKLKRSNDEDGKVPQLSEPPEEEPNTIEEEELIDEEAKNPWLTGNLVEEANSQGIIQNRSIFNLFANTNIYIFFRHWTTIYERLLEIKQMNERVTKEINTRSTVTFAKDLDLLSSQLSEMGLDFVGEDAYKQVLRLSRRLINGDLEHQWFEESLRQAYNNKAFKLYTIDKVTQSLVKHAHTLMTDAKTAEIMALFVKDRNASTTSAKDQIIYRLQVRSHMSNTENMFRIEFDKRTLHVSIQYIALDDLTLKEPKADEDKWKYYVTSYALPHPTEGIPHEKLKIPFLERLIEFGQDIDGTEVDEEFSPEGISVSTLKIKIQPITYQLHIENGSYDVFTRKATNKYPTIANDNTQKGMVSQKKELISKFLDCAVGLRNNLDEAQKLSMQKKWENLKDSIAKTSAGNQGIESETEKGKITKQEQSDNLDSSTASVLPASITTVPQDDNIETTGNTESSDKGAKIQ

Holding throughout (assay): pull-down; GST fusion from E. coli immobilized on GSH sepharose, incubated with pre-cleared total protein extract from S. cerevisiae containing the HA fusion; eluted with 10 mM free GSH; anti-HA blot; only the target purified
Assay [1] has as its target T1, GST-Fkh1 (full-length fusion protein, 1–484) (S. cerevisiae) (UniProt P40466).
T1 sequence: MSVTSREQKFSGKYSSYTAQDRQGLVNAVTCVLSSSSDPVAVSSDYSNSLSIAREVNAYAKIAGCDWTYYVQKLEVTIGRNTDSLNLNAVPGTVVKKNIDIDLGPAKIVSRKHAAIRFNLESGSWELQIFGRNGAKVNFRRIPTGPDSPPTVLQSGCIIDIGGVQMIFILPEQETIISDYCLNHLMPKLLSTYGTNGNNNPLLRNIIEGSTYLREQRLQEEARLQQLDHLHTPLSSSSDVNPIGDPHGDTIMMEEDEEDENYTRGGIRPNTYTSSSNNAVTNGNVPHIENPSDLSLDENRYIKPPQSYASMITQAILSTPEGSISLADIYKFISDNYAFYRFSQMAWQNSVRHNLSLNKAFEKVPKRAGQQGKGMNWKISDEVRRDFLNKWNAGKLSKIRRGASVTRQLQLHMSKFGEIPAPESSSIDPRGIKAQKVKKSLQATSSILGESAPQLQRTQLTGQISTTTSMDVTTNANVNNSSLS

Assay [2] addresses T2, GST-Fkh1_(51–125)I78A (S. cerevisiae) (UniProt P40466).
T2 sequence: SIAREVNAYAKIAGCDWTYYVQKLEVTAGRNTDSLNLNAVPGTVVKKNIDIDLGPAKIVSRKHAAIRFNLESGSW

Assay [3] concerns the target T3, GST-Fkh1_(51–125)L74A (S. cerevisiae) (UniProt P40466).
T3 sequence: T2 sequence with L24A, A28I

Residue numbers refer to the chain shown, from its start. No constants are given. Whether binding was seen depends on the method and setting. Binding seen in cells or lysates may run through a third protein. Some entries that bind do so weakly or less than the wild type. Sequences can lack the tags named with a protein.

For “HA3-Sin3 (full-length), expressed in S. cerevisiae (from UniProt P22579 1-1536)”, the binding entry in assay [1] was “binds”; in assay [2], “no binding”; in assay [3] it was “no binding”.
